In the assay the target is T1, CHAF1A-His (His-fused full-length CHAF1A) (human).
T1 construct: CHAF1A, human, wild-type cDNA from HEK293T cells in pET32a; also called His-tagged CHAF1A; recombinant CHAF1A; source: E. coli BL21 (DE3), purified (Ni-NTA)
Nature of the assay: pull-down; His pull-down: Ni-NTA beads coupled to His-fused CHAF1A (full length, N, M or C) incubated with recombinant RAD18-GST in 1x PBS at 4 °C; Coomassie or western blot. To be noted: both partners purified.

B1: RAD18-GST (GST-fused RAD18) (enzyme)
chain: not shown
notes: RAD18, human, full-length cDNA clone from HEK293T cells in pGEX-6P-1; also called GST-tagged RAD18; recombinant RAD18; source: E. coli BL21 (DE3), purified (GST resin)
Consider B1, for which the binding result was “binds”.

The record behind these values is article PMC11873243, “Chromatin assembly factor 1 subunit A promotes TLS pathway by recruiting E3 ubiquitin ligase RAD18 in cancer cells” (Cell Death & Disease, 2025).
